PubChem BioAssay AID504832 (National Center for Advancing Translational Sciences (NCATS), 2011)
About 18,000 (5.8%) of roughly 310,000 compounds were called active. The shares of active, inactive and inconclusive entries below differ from those in the screen. Calls follow the shape of the dose curve; as a rule, active = well fitted inhibition curve with a large enough effect; inconclusive = small, poorly fitted or top-dose-only effect, or another doubt; inactive = no such curve, though single readings can be large or run the other way. Potencies of inconclusive entries are left out as doubtful fits.

Test: Primary qHTS for delayed death inhibitors of the malarial parasite plastid, 48 hour incubation
Settings: P. falciparum luciferase growth in erythrocytes; series mostly up to 28.7 µM
How it was run: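 Here the parasites carry a stable luciferase gene and grow inside erythrocytes in Albumax-based RPMI medium with compound for one erythrocytic cycle. Activity is scored as loss of luminescent signal.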
Potency is read from the fitted curve at half-maximal effect; tags tell the direction and shape of the fitted curve.

Row | SMILES | Potency
1 | CCCN(CCC)C(C(=O)Nc1cccc(OC)c1)c1ccccc1 (stereo not given) | inconclusive [inhibitor, single point]
2 | COc1ccc(N=Nc2nc3cc(Br)c(Br)cc3n2C)c(OC)c1 | active: 10.4 µM
3 | CN(c1ccc(OCC(=O)N2CCCC2)cc1)S(=O)(=O)c1ccc(Cl)cc1 | active: 10.4 µM
4 | O=C(NC(Cc1ccccc1)C(=O)N1CCc2ccccc2C1)c1ccccc1 (stereo not given) | inconclusive [inhibitor, partial curve]
5 | Cn1c(=O)c2c(nc(NCCO)n2CCCc2ccccc2)n(C)c1=O | inactive
6 | N#Cc1c(C(F)(F)F)cc(-c2ccc(Cl)c(Cl)c2)nc1SCCN1CCOCC1 | inconclusive [inhibitor, full curve, poor fit]
7 | Cc1ccc(S(=O)(=O)N2CCN=C2SCc2ccccc2)cc1 | inconclusive [inhibitor, partial curve, poor fit]
8 | CCOC(=O)Cc1csc(SCC(=O)NC2CCS(=O)(=O)C2)n1 (stereo not given) | inconclusive [inhibitor, partial curve, poor fit]
9 | O=C(COc1ccccc1)NNc1c2ccccc2nc2ccccc12 | active: 5.22 µM
10 | CCOCC(=O)Nc1cc(C(F)(F)F)ccc1Oc1cccc(Br)c1 | inconclusive [inhibitor, full curve, poor fit]
11 | O=c1c(-c2cnn(-c3ccccc3)c2)coc2cc(O)ccc12 | inactive
12 | CCCN(Cc1nc2cc(Cl)ccc2c(=O)[nH]1)C(=O)c1ccc(S(=O)(=O)N2CCCC2)cc1 | inconclusive [inhibitor, single point]
13 | COCc1nnc(NC(=O)c2ccc(S(=O)(=O)N(C)c3ccccc3)cc2)o1 | inconclusive [inhibitor, single point]
14 | Cc1csc(NC(=O)CSc2nc3ccccc3c(=O)[nH]2)n1 | inactive
15 | Cc1ccc(SCCC(=O)OC(C(=O)NC(N)=O)C(C)C)cc1 (stereo not given) | inactive
16 | CC1(CCC(=O)N2CCCC(N3CCN(c4cccc(C(F)(F)F)c4)CC3)C2)CC1 (stereo not given) | inactive
17 | Cc1ccc(C)c(N=C2CCCN2Cc2ccccc2)c1C#N | inconclusive [inhibitor, single point]
18 | CCC1Nc2ncnc(N3CCOCC3)c2N(Cc2ccccc2)C1=O (stereo not given) | inconclusive [inhibitor, single point]
19 | Cc1ccc(CN2CC(C(=O)Nc3cccc(S(=O)(=O)N4CCCCC4)c3)CC2=O)cc1 (stereo not given) | inconclusive [inhibitor, full curve]
20 | S=C(NCc1ccco1)N1CCN(C(c2ccccc2)c2ccccc2)CC1 | inconclusive [inhibitor, partial curve, poor fit]
21 | COC(=O)C(Cc1ccccc1)P(=O)(c1ccccc1)c1ccccc1 (stereo not given) | inactive
22 | O=C(Nc1ccccc1C(=O)O)c1cncc(Br)c1 | inactive
23 | CC(Cl)C(=O)NC(=O)NC12CC3CC(CC(C3)C1)C2 (stereo not given) | inconclusive [inhibitor, partial curve]
24 | CCOc1ccc(NC(=O)c2ccc(NC(=O)COC(=O)Cc3ccccc3)cc2)cc1 | inactive
25 | COc1ccccc1-c1sc2ccccc2c1-c1ccc(Br)nc1 | inconclusive [inhibitor, single point]

Row | SMILES | Potency
26 | Cc1occc1C(=O)Nc1ccccc1C(=O)O | inactive
27 | O=C(CN1CCOCC1)c1cccc2ccccc12 | inactive
28 | C=C1SC(=Nc2ccccc2Cl)N(C(=O)c2sc3ccccc3c2Cl)C12CCCCC2 | active: 5.86 µM
29 | Cc1nn(C)c(Cl)c1CN1CCCC(CO)(Cc2cccc(Cl)c2)C1 (stereo not given) | inconclusive [inhibitor, single point]
30 | O=C(NCCc1ccccc1)NC1CCCCC1 | inactive
31 | CC(C)CCNC(=O)CCSCCC(=O)NCCC(C)C | inactive
32 | CC(=O)N1N=C(c2cccc(NS(C)(=O)=O)c2)CC1c1ccc2c(c1)OCO2 (stereo not given) | inactive
33 | CCOc1ccccc1NC(=O)NCCC1=CCCCC1 | inconclusive [inhibitor, partial curve, poor fit]
34 | CSc1cccc(NC(=O)c2cc(S(=O)(=O)N3CCc4ccccc43)cn2C)c1 | inconclusive [inhibitor, single point]
35 | Fc1ccc(COc2ccccc2CNCc2ccncc2)cc1 | inconclusive [inhibitor, partial curve]
36 | Cc1cccc(C)c1OCc1cc(C(=O)N(Cc2c(C)nn(C)c2C)C2CC2)no1 | inactive
37 | c1cc2nnnn2nc1N1CCCCC1 | inactive
38 | CC(Oc1ccc(S(=O)(=O)N2CCCC2)cc1[N+](=O)[O-])C(=O)N(C)c1ccccc1 (stereo not given) | inconclusive [inhibitor, single point]
39 | CN(C)c1cccc(C(=O)n2cc(C(=O)c3cc(F)ccc3O)cn2)c1 | inactive
40 | CC(C)Sc1nc(N2CCOCC2)c2c3c(sc2n1)COC(C)(C)C3 | inconclusive [inhibitor, partial curve]
41 | Cc1ccc2c(=O)cc(C(=O)Nc3ccc(S(=O)(=O)Nc4onc(C)c4C)cc3)oc2c1 | inactive
42 | COc1cccc(OC)c1C(=O)NCC12CC3CC(C1)CC(CNC(=O)c1c(OC)cccc1OC)(C3)C2 | inactive
43 | O=C(NCc1nnc(SCC(=O)N2CCCCCC2)o1)c1ccc(F)cc1 | inactive
44 | Cc1cc(C)cc(NC(=O)C(=O)NCC2CCCN2S(=O)(=O)c2cccs2)c1 (stereo not given) | inconclusive [inhibitor, single point]
45 | CC(C)n1c(COc2ccccc2)nc2ccccc21 | inconclusive [inhibitor, single point]
46 | Cc1cc(C)cc(NS(=O)(=O)c2ccc(NC(=O)C3CCCCC3C(=O)O)cc2)c1 (stereo not given) | inactive
47 | Cc1cccc(C(=O)Nc2ccccc2N2CCN(c3ccc(F)cc3)CC2)c1 | inconclusive [inhibitor, single point]
48 | COc1cccc(Nc2ncc(C#N)c(N)n2)c1 | inactive
49 | O=C(CCS(=O)(=O)c1ccc(Br)s1)NCc1cccs1 | inconclusive [inhibitor, single point]
50 | Cn1ncc(Cl)c1C(=O)N1CCN(c2ccc(F)cc2)CC1 | inactive

Row | SMILES | Potency
51 | CCCn1nc(NC(=O)c2cccs2)c2cc3cc(OC)ccc3nc21 | inconclusive [inhibitor, single point]
52 | Cc1oc(C(C)(C)C)cc1-c1cc(NC(=O)c2ccc([N+](=O)[O-])cc2)n[nH]1 | active: 1.85 µM
53 | Cc1cccc(CS(=O)(=O)Cc2ccc(C(=O)NC(C)c3ccccc3)o2)c1 (stereo not given) | inconclusive [inhibitor, single point]
54 | O=C(CNC(=O)c1cccs1)N/N=C/c1ccc(O)cc1O | inactive
55 | COc1cc(S(=O)(=O)NCCCn2ccnc2)ccc1Cl | inactive
56 | Cc1ccc(C)c(N2CCN(S(=O)(=O)c3ccc4c(c3)CC(=O)N4C)CC2)c1 | active: 8.28 µM
57 | O=c1cc(C23CC4CC(CC(C4)C2)C3)[nH][nH]1 | inconclusive [inhibitor, partial curve, poor fit]
58 | O=C(CO/N=C/c1ccc(OC(F)F)cc1)NC1CCCCC1 | inconclusive [inhibitor, single point]
59 | COc1ccccc1NC(=O)CSc1nc2sc(C)c(C)c2c(=O)n1C | inactive
60 | Clc1ccc(C2=CSC3=NCCN23)cc1Cl | inconclusive [inhibitor, single point]
61 | COc1ccc(C(=O)COC(=O)c2sc(C)nc2C)cc1OC | inconclusive [inhibitor, single point]
62 | O=C(OCC(=O)N1c2ccccc2Sc2ccccc21)C1CC(=O)N(Cc2ccco2)C1 (stereo not given) | inactive
63 | O=C(Cc1ccccc1[N+](=O)[O-])NCCSCc1c(F)cccc1Cl | inactive
64 | Cc1ccc(S(=O)(=O)N2CCCC(c3nc4c(nnn4Cc4ccc5c(c4)OCCO5)c(=O)[nH]3)C2)cc1 (stereo not given) | inconclusive [inhibitor, partial curve]
65 | Cc1cc(OC(C)C(=O)NC2CCN(Cc3ccccc3)CC2)c2c(C)cc(=O)oc2c1 (stereo not given) | inconclusive [inhibitor, partial curve]
66 | C(/C=C/C=C/Nc1ccccc1)=Nc1ccccc1 | inconclusive [inhibitor, single point]
67 | O=C1C(Cl)=C(N2CCCCCC2)C(=O)N1c1ccccc1Cl | inactive
68 | COc1ccccc1OCC(=O)Nc1ccc(NC(=O)COc2ccccc2OC)cc1 | inconclusive [inhibitor, partial curve, poor fit]
69 | C=C(C)CNC(=S)Nc1sc2c(c1C(=O)OCC)CC(C)(C)OC2 | inactive
70 | CCc1cc2c(nc1CC)CCN(CC/C(C)=N/O[C@@H](C)c1cc(-c3c(C)cc(C)cc3C)no1)C2 | inconclusive [inhibitor, full curve]
71 | COc1cc2cc(CCOC(=O)c3ccc(C(F)(F)F)cc3)oc(=O)c2cc1OC | inconclusive [inhibitor, single point]
72 | O=[N+]([O-])c1cc(S(=O)(=O)N2CCCC2)ccc1NCCCN1CCOCC1 | inactive
73 | COc1ccc(C(=O)COC(=O)CNC(=O)c2cccs2)cc1Br | inactive
74 | Cc1ccc(NS(=O)(=O)c2ccc(C(=O)NCc3ccccn3)cc2)cc1 | inconclusive [inhibitor, single point]
75 | COc1ccc(OC)c(-c2csc(NC(=O)CSCc3c(C)noc3C)n2)c1 | inconclusive [inhibitor, partial curve, poor fit]
